89 compounds from article PMC4336329 (PLoS ONE, 2015) can be followed below.

Among all 310,000 compounds or so, about 14,000 (4.5%) showed an effect of 50% or more. Effects have a minus sign here. The list shows a part of the results.
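Further: peak tail current of the secondary pulse compared with the same well before compound.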

The target of the test is human ether-à-go-go-related gene (hERG) potassium channel (human, UniProt Q12809). As to the kind of experiment: primary screen, population patch clamp on CHO cells stably expressing hERG.
Chain of human ether-à-go-go-related gene (hERG) potassium channel (Q12809 whole entry, looked up): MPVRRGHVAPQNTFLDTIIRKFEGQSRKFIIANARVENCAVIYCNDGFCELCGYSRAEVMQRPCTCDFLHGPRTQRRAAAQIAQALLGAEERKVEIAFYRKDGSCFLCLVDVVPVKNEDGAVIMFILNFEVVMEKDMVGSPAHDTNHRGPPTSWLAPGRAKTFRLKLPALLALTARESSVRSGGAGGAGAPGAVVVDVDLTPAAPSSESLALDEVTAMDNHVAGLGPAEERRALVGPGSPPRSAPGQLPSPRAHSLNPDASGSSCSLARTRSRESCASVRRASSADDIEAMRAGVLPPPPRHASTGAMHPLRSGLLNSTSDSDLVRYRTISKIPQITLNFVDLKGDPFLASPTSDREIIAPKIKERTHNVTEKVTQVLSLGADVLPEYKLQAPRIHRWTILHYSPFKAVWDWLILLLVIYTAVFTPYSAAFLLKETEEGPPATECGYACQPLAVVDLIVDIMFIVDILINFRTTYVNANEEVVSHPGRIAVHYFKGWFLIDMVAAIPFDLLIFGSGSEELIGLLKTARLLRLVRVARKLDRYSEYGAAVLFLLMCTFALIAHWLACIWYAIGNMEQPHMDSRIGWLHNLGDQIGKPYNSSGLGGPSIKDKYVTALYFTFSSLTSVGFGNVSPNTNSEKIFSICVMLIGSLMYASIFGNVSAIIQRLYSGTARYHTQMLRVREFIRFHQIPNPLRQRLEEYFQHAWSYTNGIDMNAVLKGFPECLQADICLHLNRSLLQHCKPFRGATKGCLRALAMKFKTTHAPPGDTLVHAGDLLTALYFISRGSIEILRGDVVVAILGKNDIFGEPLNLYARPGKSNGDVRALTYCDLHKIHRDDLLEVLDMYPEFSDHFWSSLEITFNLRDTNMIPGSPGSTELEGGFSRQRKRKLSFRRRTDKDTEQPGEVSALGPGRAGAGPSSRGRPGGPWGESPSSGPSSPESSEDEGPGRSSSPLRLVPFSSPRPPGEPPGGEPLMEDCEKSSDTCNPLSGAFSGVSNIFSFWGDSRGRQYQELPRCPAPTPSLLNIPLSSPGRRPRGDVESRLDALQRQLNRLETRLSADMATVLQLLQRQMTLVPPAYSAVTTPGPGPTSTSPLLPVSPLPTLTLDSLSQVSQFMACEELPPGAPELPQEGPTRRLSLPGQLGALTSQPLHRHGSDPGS
For the compound `COc1ccc(CC(=O)NNS(=O)(=O)c2cccc([N+](=O)[O-])c2)cc1OC`, the “hERG current change (%, negative = inhibition) at 10uM” value turned out to be 18.6%.
As for `CCOC(=O)C(NC(=O)c1ccc(Cl)cc1Cl)(Nc1ccc(C)cc1)C(F)(F)F` (centres unmarked), the “hERG current change (%, negative = inhibition) at 10uM” value was 3.51%.
Under `O=C1NC[C@H](CC2CCCCC2)N(CC2CCCCC2)C1=O` stands -9.63%; under `COc1ccc(N2CCN(CCCNC(=O)c3cc4sccc4n3C)CC2)cc1`, -70.7%.
Under `COc1ccc(CC(=O)Nc2nc(-c3cc(OC)ccc3OC)cs2)cc1` stands 5.41%; under `C/C(=N\Nc1nc2ccccc2[nH]1)c1ccc2c(c1)OCCO2`, -3.96%.
Under `CC(C)(C)C1CCc2c(sc(N)c2C(N)=O)C1` (centres unmarked) stands -2.58%.
As to `NNC(=O)C(Cc1c[nH]c2ccccc12)NC(=O)c1ccccc1` (centres unmarked), the “hERG current change (%, negative = inhibition) at 10uM” value came to 2.77%.
For `Cc1cc2c(cc1C)CSC(c1ccc(O)cc1)SC2`, the “hERG current change (%, negative = inhibition) at 10uM” value worked out at 22.8%.
Under `Cc1c(C)c(C)c(S(=O)(=O)n2[nH]c(=O)c(CCO)c2C)c(C)c1C` stands -14.4%; under `COCC1CCN(C(=O)c2ccc3oc(Cc4ccccc4)nc3c2)C1` (centres unmarked), -0.23%.
As for `CCC(=NCC1CCCO1)c1c(O)n(-c2ccccc2C)c(=O)[nH]c1=O` (centres unmarked), the figure is 16.7%; as for `C=CCn1c(NCc2cc(Cl)ccc2O)nc2ccccc21`, -0.405%; as for `CCC(=O)NC(Nc1cccc(C)n1)(C(F)(F)F)C(F)(F)F`, 10.6%.
Under `COc1cccc(/C=N\Nc2nncc(-c3ccccc3)n2)c1` stands -1.22%; under `CCOc1ccc(NC(=O)Nc2ccc(NC(C)=O)cc2)cc1`, 25.3%.
Consider `COc1ccccc1-n1c(/C=C/c2ccccn2)nc2ccccc2c1=O`, for which the “hERG current change (%, negative = inhibition) at 10uM” value turned out to be 5.91%.
Under `COc1cc(CNC(=O)CCC(=O)N2C[C@H]3C[C@H](C2)c2cccc(=O)n2C3)cc(OC)c1OC` stands 7.77%.
With `COc1cccc(OC)c1C(=O)O/N=C(\N)c1ccncc1`, the “hERG current change (%, negative = inhibition) at 10uM” value is 2.52%.
With `CCOc1ccc(C2CC(c3cccc(OC)c3)Nc3nc(N)nn32)cc1` (centres unmarked), the “hERG current change (%, negative = inhibition) at 10uM” value is recorded as -26%.
As for `Cc1cc2c(C)nc(Cc3ccccc3)nc2o1`, the figure is 14.7%; as for `CCOC(=O)/C(C#N)=C1\C=CN(C)C(C)=N1`, 4.97%.
Under `N#Cc1cccn1-c1nccc(-c2cccs2)n1` stands -4.22%; under `CCN(CC)CCNC(=O)Cn1nc(-c2ccc(C)cc2)ccc1=O`, -14.2%; under `Cc1ccc(CN2C(=O)CCC2C(=O)NCCN2CCOCC2)cc1` (centres unmarked), 3.18%.
Under `O=C(Nc1ccc2c(c1)OCO2)C1CCN(S(=O)(=O)Cc2ccccc2)CC1` stands 10.5%.
With `CC(=O)N1c2ccc(S(=O)(=O)N(C)C3CCCCC3)cc2CC1C` (centres unmarked), the “hERG current change (%, negative = inhibition) at 10uM” value is -21.6%.
Under `Cc1ccc(S(=O)(=O)N(C)CC(=O)NCc2ccncc2)cc1` stands -13.7%.
Under `CCOc1ccc(N(CC)C(=O)Cc2c(C(=O)O)n(C)c3ccccc23)cc1` stands 16.8%.
As for `O=C(O)COc1ccc2c(c1)OCCO2`, the figure is 8.17%.
`Cc1oc(-c2ccccc2F)nc1CS(=O)(=O)CC(=O)NCCN1CCCC1`: the “hERG current change (%, negative = inhibition) at 10uM” value turned out to be 12.4%.
Under `Cc1sc2nc(SCC(=O)O)[nH]c(=O)c2c1C` stands 16.2%.
On to `CCCCN(CC)CCNC(=O)c1[nH]c(C)c(C(C)=O)c1C`, for which the “hERG current change (%, negative = inhibition) at 10uM” value is given as -8.67%.
Take `Cc1nn(CC(=O)OCC(=O)NC(C)c2ccccc2)c(C)c1[N+](=O)[O-]` (centres unmarked): the “hERG current change (%, negative = inhibition) at 10uM” value was 9.05%.
As for `O=C1CSC(c2cccnc2)N1Cc1cccnc1` (centres unmarked), the figure is 13.9%.
As for `Cc1ccccc1OC(C)C(=O)NCCCN1CCOCC1` (centres unmarked), the figure is 14.1%.
As for `O=C(Cn1c(=O)oc2cc(S(=O)(=O)N3CCCC3)ccc21)N1CCN(c2ccccc2F)CC1`, the figure is 1.28%; as for `COc1cc(NS(=O)(=O)c2ccc3ccccc3c2)c2ncccc2c1`, 1.74%; as for `CCN(CC)c1ccc(C(=O)NNC(=O)c2cccn2C)cc1`, -12.5%.
As for `NC(=O)c1nc(N2CCOCC2)nc(N2CCOCC2)n1`, the “hERG current change (%, negative = inhibition) at 10uM” value is reported as 8.54%.
Under `COc1ccc(C(=O)Oc2cc(C(=S)N3CCOCC3)ccc2OC)cc1` stands 2.81%; under `COc1ccccc1N1CCN(S(=O)(=O)c2ccc(Br)s2)CC1`, -2.54%; under `CCN1C(=O)CSC1=Nc1ccc(C(=O)O)cc1`, 25.1%.
Consider `COc1ccc(N(CC(=O)NCc2ccccn2)S(=O)(=O)c2ccccc2[N+](=O)[O-])c(OC)c1`, for which the “hERG current change (%, negative = inhibition) at 10uM” value was -10.3%.
Regarding `CCCc1c(C(=O)Nc2ccc(F)cc2F)cnn1-c1ccccc1`, the “hERG current change (%, negative = inhibition) at 10uM” value is -13.5%.
Under `CCCC1(C(=O)OC)NC(c2ccc(OC)c(OC)c2)C2C(=O)N(c3cccc(C(C)=O)c3)C(=O)C21` (centres unmarked) stands 2.39%.
Under `COc1cc(C(=O)NCCSc2ccc(Br)cc2)cc(OC)c1OC` stands 6.33%; under `CCc1c(C)nc2ncnn2c1NCCc1ccccc1`, -15.2%.
Under `Oc1ccc(Cl)cc1CNc1nccs1` stands 14.4%; under `O=C(CSc1ccc(-c2cccc([N+](=O)[O-])c2)nn1)N1CCCCC1`, -1.31%.
For the compound `O=C(CCOc1ccccc1)Nc1ccc(S(=O)(=O)N2CCCC2)cc1`, the “hERG current change (%, negative = inhibition) at 10uM” value is given as -17.1%.
Under `COc1ccccc1C(=O)COC(=O)c1cccc(S(=O)(=O)N2CCCC2)c1` stands -1.47%; under `CCOc1cc(/C=C2\C(=N)N3N=C(S(=O)(=O)CC)SC3=NC2=O)ccc1OC(=O)c1ccco1`, 2.4%; under `CN(C(=O)CSc1nnnn1-c1ccccc1)C1CCCCC1`, -21.7%.
As for `COc1ccc(C2=NN(c3ccc(C=O)cc3)C(c3ccccc3)C2)cc1` (centres unmarked), the figure is 18.9%.
With `CC(C)(C)C(=O)O/N=C(\N)c1ccc(-c2csnn2)cc1`, the “hERG current change (%, negative = inhibition) at 10uM” value was -3.82%.
Take `CCS(=O)(=O)N1CCC(C(=O)Nc2ccc3c(c2)CCC3)CC1`: the “hERG current change (%, negative = inhibition) at 10uM” value was -4.33%.
With `Cn1c2c(c(=O)n(C)c1=O)C(CC(=O)Nc1ccc(F)cc1)C(=O)N2` (centres unmarked), the “hERG current change (%, negative = inhibition) at 10uM” value is on record as 3.05%.
As for `COCCNC(=O)C(c1ccc(F)cc1)N(Cc1ccco1)C(=O)CCC(=O)Nc1nccs1` (centres unmarked), the figure is -1.78%.
With `CCOC(=O)C1CCCN(C(=O)c2ccc(C)c(S(=O)(=O)N3CCCCC3)c2)C1` (centres unmarked), the “hERG current change (%, negative = inhibition) at 10uM” value was -25.3%.
Under `COc1ccc(C2OCC3(CO2)SC(=O)NC3=O)cc1OC` (centres unmarked) stands 10.6%.
As for `Cc1cc(C)n2nc(S(=O)(=O)NC3CCCCC3)nc2n1`, the figure is 8.17%; as for `Cc1c(O)cccc1C(=O)N[C@@H](CSc1ccccc1)[C@H](O)CN1C[C@H]2CCCC[C@H]2C[C@H]1C(=O)NC(C)(C)C`, 8.75%.
With `C=CCn1c(=O)c2ccccc2n2c(SCc3nc(N)nc(Nc4ccccc4C)n3)nnc12`, the “hERG current change (%, negative = inhibition) at 10uM” value is listed as -26.8%.
Under `N#Cc1sc2nc3c(c(-c4cccnc4)c2c1N)CCC3` stands -12%.
As for `CNC(=O)CSc1nc2cc(S(=O)(=O)Nc3ccccc3OC)ccc2o1`, the figure is 11.5%; as for `O=C(CSc1ccccc1F)NCC1(N2CCCCC2)CCCCC1`, -17.3%; as for `CN(C)C=O.Cc1ccc(-c2cc(-c3n[nH]c(=S)o3)c3ccccc3n2)cc1`, 31%.
As for `Cc1ccc(C(=O)Oc2cccc(NC(=O)c3cccs3)c2)cc1S(=O)(=O)N1CCOCC1`, the figure is -20.7%; as for `OCCNCCO`, -2.71%; as for `CCCCN(C)S(=O)(=O)c1ccc(C(=O)N(CCN(C)C)c2nc3ccc(C)cc3s2)cc1.Cl`, -43.4%.
Consider `CCc1nnc(SCC(=O)NC2CCCC2)nc1CC`, for which the “hERG current change (%, negative = inhibition) at 10uM” value was -3.08%.
Under `Cc1ccc(C2N(c3ccccn3)C(=O)C3CCCN32)o1` (centres unmarked) stands 1.96%; under `CCN(CC)CC1C(=O)N(c2ccc(OC)cc2)C1c1ccccc1` (centres unmarked), -19.8%.
As for `C=C1C(O)(c2ccccc2)C2CC[N+]1(C)CC2.[Cl-]` (centres unmarked), the figure is 11.7%.
Under `COc1ccc(-c2nnc(SCC(=O)NCc3cccs3)n2CC(C)C)cc1` stands -15.2%.
As to `O=C(C1CCN(C2CCN(Cc3cccc4c3OCO4)CC2)CC1)N1CCOCC1`, the “hERG current change (%, negative = inhibition) at 10uM” value is given as -34.7%.
In the case of `CCn1c(SCc2ccccc2)nc2c(c1=O)SCC2`, the “hERG current change (%, negative = inhibition) at 10uM” value is -26%.
As for `O=C(CSc1nnc(-c2ccncc2)n1C1CCCCC1)Nc1cccc(O)c1`, the figure is -5.93%.
Under `O=C(Cn1c(C2CC2)nc2ccccc2c1=O)Nc1ccc(Br)cc1` stands 3.32%.
For `Cc1ccc(NC(=O)c2ccccc2Cl)cc1-n1cnnn1`, the “hERG current change (%, negative = inhibition) at 10uM” value was -38.9%.
As for `CC(OC(=O)Cc1coc2ccc3ccccc3c12)C(=O)NC(N)=O` (centres unmarked), the figure is 13.8%; as for `Fc1ccc(NC(=S)N/N=C/c2ccc(F)c(F)c2)c(F)c1`, 13%; as for `NC(=O)c1ccc(NC(=O)CS(=O)(=O)c2cn(CC(=O)N3CCCC3)c3ccccc23)cc1`, -5.79%.
As for `O=C(O)[C@@H]1CCCN1C(=O)c1ccco1`, the figure is 5.4%; as for `C=CCCC(=O)Nc1nc(C)c(-c2csc(Nc3cccc(OC)c3)n2)s1`, -20.1%.
Under `Cc1ccc(-c2ccc(SCC(=O)Nc3ccc4c(c3)OCCO4)nn2)cc1` stands -1.55%; under `COc1ccccc1NS(=O)(=O)c1ccc(C(=O)N2CCCC(C)C2)cc1` (centres unmarked), -2.43%; under `CN(C(=O)Oc1ccc([N+](=O)[O-])cc1)c1ccccc1`, -11.5%.
